# Some of the results follow.
# What was measured:
# HSkMC = human skeletal muscle cells; assay: cytotoxicity call (relative viability < 0.9); conditions: 10 µM
# HepG2 = assay: cytotoxicity call (relative viability < 0.9); conditions: 10 µM
# S. aureus RN4220 = assay: growth inhibition call (relative growth <= 0.2); conditions: 50 µM
SMILES,cytotoxicity call (HSkMC),cytotoxicity call (HepG2),growth inhibition call (S. aureus RN4220)
Cc1noc(C)c1S(=O)(=O)N(C)C[C@@H]1OCCCC[C@@H](C)Oc2ccc(NC(=O)Nc3ccc(C(F)(F)F)cc3)cc2C(=O)N([C@@H](C)CO)C[C@@H]1C,inactive,inactive,inactive
O=C(C[C@H]1CC[C@H]2[C@@H](COC[C@@H](O)CN2C(=O)Nc2ccc(Cl)cc2)O1)NC1Cc2ccccc2C1,inactive,active,inactive
C[C@H]1CN([C@@H](C)CO)C(=O)c2cc(NS(=O)(=O)c3ccc(F)cc3)ccc2O[C@H]1CN(C)S(=O)(=O)c1ccccc1,inactive,inactive,inactive
C[C@@H]1CN([C@H](C)CO)C(=O)Cc2cc(NC(=O)Nc3ccc(F)cc3)ccc2O[C@@H]1CN(C)C(=O)Nc1ccc(C(F)(F)F)cc1,inactive,inactive,inactive
C[C@H](CO)N1C[C@H](C)[C@@H](CN(C)Cc2ccccc2)Oc2ccc(NC(=O)CCN3CCOCC3)cc2CC1=O,inactive,inactive,inactive
C[C@@H]1CN([C@@H](C)CO)C(=O)c2c(c3ccccc3n2C)-c2ccccc2CO[C@H]1CN(C)Cc1ccccc1,inactive,active,inactive
C[C@@H]1CN([C@@H](C)CO)C(=O)Cc2cc(N(C)C)ccc2O[C@@H]1CN(C)S(=O)(=O)c1ccc(Cl)cc1,inactive,inactive,inactive
COc1ccc(NC(=O)Nc2ccc3c(c2)C(=O)N([C@@H](C)CO)C[C@@H](C)[C@H](CN(C)S(=O)(=O)c2ccc(C)cc2)OCCCC[C@@H](C)O3)cc1,inactive,inactive,inactive
COc1cccc(S(=O)(=O)Nc2ccc3c(c2)OC[C@@H](C)N(C(=O)Cc2cccnc2)C[C@H](C)[C@H](OC)CN(C)C3=O)c1,inactive,inactive,inactive
O=S(=O)(NCC[C@H]1CC[C@H](NS(=O)(=O)c2cccc(Cl)c2)[C@@H](CO)O1)c1cccc(F)c1,inactive,inactive,inactive
C[C@H](CO)N1C[C@H](C)[C@@H](CN(C)C(=O)C2CCCCC2)OCCCC[C@H](C)Oc2ccc(NS(=O)(=O)c3cccs3)cc2C1=O,inactive,inactive,inactive
C[C@@H]1CN([C@@H](C)CO)C(=O)c2cc(NS(=O)(=O)c3ccccc3)ccc2O[C@H]1CN(C)Cc1ccc(Oc2ccccc2)cc1,inactive,inactive,inactive
CCCCCS(=O)(=O)CCCCCCCCCCn1c(-c2ccc(O)cc2)c(C)c2cc(O)ccc21,active,active,inactive
C[C@@H]1CN([C@@H](C)CO)C(=O)c2cc(NC(=O)CCC(F)(F)F)ccc2O[C@@H](C)CCCCO[C@H]1CN(C)S(=O)(=O)c1ccc(F)cc1,inactive,inactive,inactive
C[C@H]1CN([C@@H](C)CO)C(=O)c2cc(-c3cccnc3)cnc2O[C@H]1CN(C)C(=O)Nc1ccc2c(c1)OCO2,inactive,inactive,inactive
COc1ccc(NC(=O)N(C)C[C@H]2OCCCC[C@@H](C)Oc3ccc(NS(=O)(=O)c4ccc(Cl)cc4)cc3C(=O)N([C@H](C)CO)C[C@H]2C)cc1,inactive,inactive,inactive
C[C@H]1CN([C@@H](C)CO)C(=O)c2cc(NC(=O)CCN3CCOCC3)ccc2O[C@@H]1CN(C)Cc1ccccc1,inactive,inactive,inactive
COCCNC(=O)C[C@H]1CC[C@@H]2[C@@H](COc3ccc(NS(=O)(=O)c4ccc(Cl)cc4)cc3C(=O)N2C)O1,inactive,inactive,inactive
CC(=O)Nc1c(I)c(C(=O)N[C@@H]2[C@@H](O)[C@H](O)[C@@H](CO)O[C@@H]2O)c(I)c(N(C)C(C)=O)c1I,inactive,inactive,inactive
C[C@@H]1CN([C@H](C)CO)C(=O)Cc2cc(NC(=O)Cc3cn(C)c4ccccc34)ccc2O[C@H]1CN(C)C,inactive,inactive,inactive
C[C@@H]1CN([C@@H](C)CO)C(=O)c2cc(NC(=O)CCC(F)(F)F)ccc2O[C@@H](C)CCCCO[C@@H]1CN(C)C(=O)Nc1ccc(F)cc1,inactive,inactive,inactive
Cc1ccc(S(=O)(=O)Nc2ccc3c(c2)C(=O)N([C@H](C)CO)C[C@@H](C)[C@H](CN(C)C(=O)Nc2ccc(F)cc2)OCCCC[C@H](C)O3)cc1,active,active,inactive
CC(C)NC(=O)N(C)C[C@@H]1OCCCC[C@@H](C)Oc2ccc(NC(=O)Nc3ccc(F)cc3)cc2C(=O)N([C@H](C)CO)C[C@H]1C,inactive,inactive,inactive
C=C(C)[C@@H]1CC[C@]2(C(=O)O)CC[C@]3(C)[C@H](CC[C@@H]4[C@@]5(C)CC[C@H](OC(=O)CC(C)(C)C(=O)O)C(C)(C)[C@@H]5CC[C@]43C)[C@@H]12,inactive,inactive,inactive
C[N+](C)(C)CCCCNC(=O)[C@@H]1C[C@@H]2C(=O)NCC(=O)N2[C@@H]1c1ccc(O)cc1,inactive,inactive,inactive
C[C@H]1CN([C@@H](C)CO)C(=O)c2cccc(NC(=O)Nc3ccccc3)c2O[C@H]1CN(C)Cc1ccc(C(F)(F)F)cc1,inactive,inactive,inactive
Cc1ccc(S[C@]2(C(=O)NC(C)C)CC(=O)N(Cc3ccccc3C(F)(F)F)[C@@H]2c2ccc(CO)cc2)cc1,inactive,inactive,inactive
Cc1ccc(CN(CCO)CCO)cc1,inactive,inactive,inactive

# From the antibiotic and cytotoxicity screens of Wong et al. (2023)
